# Source: the supplement of paper PMC8728848
# The list shows a part of the results.
# B1: LCA (Lens culinaris), P02870 (protein)
# chain: MASLQTQMISFYLIFLSILLTTIFFFKVNSTETTSFSITKFSPDQKNLIFQGDGYTTKGKLTLTKAVKSTVGRALYSTPIHIWDRDTGNVANFVTSFTFVIDAPSSYNVADEFTFFIAPVDTKPQTGGGYLGVFNSKEYDKTSQTVAVEFDTFYNAAWDPSNKERHIGIDVNSIKSVNTKSWNLQNGERANVVIAFNAATNVLTVTLTYPNSLEEENVTSYTLNEVVPLKDVVPEWVRIGFSATTGAEFAAHEVHSWSFHSELGGTSSSKQAADA
# How the values were obtained:
# Experiment in all cases: glycan array binding signal (z-score within array); higher = stronger binding
# Settings in all cases: glycan notation: IUPAC condensed, linker removed
# [1] = biological target: Gal(b1-4)GlcNAc(b1-3)Gal(b1-4)GlcNAc(b1-3)Gal(b1-4)GlcNAc(b1-3)Gal(b1-4)GlcNAc(b1-3)Gal(b1-4)GlcNAc(b1-2)Man(a1-3)[Gal(b1-4)GlcNAc(b1-3)Gal(b1-4)GlcNAc(b1-3)Gal(b1-4)GlcNAc(b1-3)Gal(b1-4)GlcNAc(b1-3)Gal(b1-4)GlcNAc(b1-2)Man(a1-6)]Man(b1-4)GlcNAc(b1-4)GlcNAc
# Outline: (§1)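 Glycan array data were curated from 3228 arrays in the Consortium for Functional Glycomics database and kept only where the protein sequence was available. Glycan names were converted to IUPAC-condensed notation, and columns mapping to the same glycan were averaged. The binding signal is a within-array Z-score, averaged across arrays of the same protein sequence at different concentrations or buffers and across linkers. Negative Z-scores can be read as non-binding.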
# [2] = biological target: Gal(b1-4)GlcNAc(b1-3)Gal(b1-4)GlcNAc(b1-3)Gal(b1-4)GlcNAc(b1-3)Gal(b1-4)GlcNAc(b1-3)Gal(b1-4)GlcNAc(b1-2)Man(a1-3)[Gal(b1-4)GlcNAc(b1-3)Gal(b1-4)GlcNAc(b1-3)Gal(b1-4)GlcNAc(b1-3)Gal(b1-4)GlcNAc(b1-3)Gal(b1-4)GlcNAc(b1-2)Man(a1-6)]Man(b1-4)GlcNAc(b1-4)[Fuc(a1-6)]GlcNAc
# Outline: as §1
# [3] = biological target: Gal(b1-4)GlcNAc(b1-3)Gal(b1-4)GlcNAc(b1-3)Gal(b1-4)GlcNAc(b1-3)Gal(b1-4)GlcNAc(b1-3)Gal(b1-4)GlcNAc(b1-2)[Gal(b1-4)GlcNAc(b1-3)Gal(b1-4)GlcNAc(b1-3)Gal(b1-4)GlcNAc(b1-3)Gal(b1-4)GlcNAc(b1-3)Gal(b1-4)GlcNAc(b1-6)]Man(a1-6)[Gal(b1-4)GlcNAc(b1-3)Gal(b1-4)GlcNAc(b1-3)Gal(b1-4)GlcNAc(b1-3)Gal(b1-4)GlcNAc(b1-3)Gal(b1-4)GlcNAc(b1-2)Man(a1-3)]Man(b1-4)GlcNAc(b1-4)[Fuc(a1-6)]GlcNAc
# Outline: as §1
# [4] = biological target: Gal(b1-4)GlcNAc(b1-3)Gal(b1-4)GlcNAc(b1-3)Gal(b1-4)GlcNAc(b1-3)Gal(b1-4)GlcNAc(b1-3)Gal(b1-4)GlcNAc(b1-3)Gal(b1-4)GlcNAc(b1-2)Man(a1-3)[Gal(b1-4)GlcNAc(b1-3)Gal(b1-4)GlcNAc(b1-3)Gal(b1-4)GlcNAc(b1-3)Gal(b1-4)GlcNAc(b1-3)Gal(b1-4)GlcNAc(b1-3)Gal(b1-4)GlcNAc(b1-2)Man(a1-6)]Man(b1-4)GlcNAc(b1-4)GlcNAc
# Outline: as §1
# [5] = biological target: Gal(b1-4)GlcNAc(b1-3)Gal(b1-4)GlcNAc(b1-3)GalNAc
# Outline: as §1
# [6] = biological target: Gal(b1-4)GlcNAc(b1-3)Gal(b1-4)GlcNAc(b1-3)[Gal(b1-4)GlcNAc(b1-3)Gal(b1-4)GlcNAc(b1-6)]GalNAc
# Outline: as §1
# [7] = biological target: Gal(b1-4)GlcNAc(b1-3)Gal(b1-4)GlcNAc(b1-6)[Gal(b1-3)]GalNAc
# Outline: as §1
# [8] = biological target: Gal(b1-4)GlcNAc(b1-3)Gal(b1-4)[Fuc(a1-3)]GlcNAc(b1-3)Gal(b1-4)[Fuc(a1-3)]GlcNAc
# Outline: as §1
# [9] = biological target: Gal(b1-4)GlcNAc(b1-3)GalNAc
# Outline: as §1
# [10] = biological target: Gal(b1-4)GlcNAc(b1-3)[Fuc(a1-3)GlcNAc(b1-6)]Gal(b1-4)Glc
# Outline: as §1
# [11] = biological target: Gal(b1-4)GlcNAc(b1-3)[Gal(b1-4)GlcNAc(b1-6)]Gal(b1-4)GlcNAc
# Outline: as §1
# [12] = biological target: Gal(b1-4)GlcNAc(b1-3)[Gal(b1-4)GlcNAc(b1-6)]GalNAc
# Outline: as §1
# [13] = biological target: Gal(b1-4)GlcNAc(b1-3)[GlcNAc(b1-6)]Gal(b1-4)GlcNAc
# Outline: as §1
# [14] = biological target: Gal(b1-4)GlcNAc(b1-6)Gal(b1-4)GlcNAc
# Outline: as §1
# [15] = biological target: Gal(b1-4)GlcNAc(b1-6)Gal(b1-4)GlcNAc(b1-6)GalNAc
# Outline: as §1
# [16] = biological target: Gal(b1-4)GlcNAc(b1-6)GalNAc
# Outline: as §1
# [17] = biological target: Gal(b1-4)GlcNAc(b1-6)[Gal(b1-3)]GalNAc
# Outline: as §1
# [18] = biological target: Gal(b1-4)GlcNAc(b1-6)[Gal(b1-4)GlcNAc(b1-3)]GalNAc
# Outline: as §1
# Gal(b1-4)GlcNAc6P = biological target: Gal(b1-4)GlcNAc6P
# Outline: as §1
# Gal(b1-6)Gal = biological target: Gal(b1-6)Gal
# Outline: as §1
# Gal3S(b1-3)GalNAc = biological target: Gal3S(b1-3)GalNAc
# Outline: as §1
# Gal3S(b1-3)GlcNAc = biological target: Gal3S(b1-3)GlcNAc
# Outline: as §1
# [19] = biological target: Gal3S(b1-3)[Fuc(a1-4)]GlcNAc
# Outline: as §1
# Gal3S(b1-4)Glc = biological target: Gal3S(b1-4)Glc
# Outline: as §1
# Gal3S(b1-4)Glc6S = biological target: Gal3S(b1-4)Glc6S
# Outline: as §1
# Gal3S(b1-4)GlcNAc = biological target: Gal3S(b1-4)GlcNAc
# Outline: as §1
# Gal3S(b1-4)GlcNAc6S = biological target: Gal3S(b1-4)GlcNAc6S
# Outline: as §1
# [20] = biological target: Gal3S(b1-4)[Fuc(a1-3)]Glc6S
# Outline: as §1
# [21] = biological target: Gal3S(b1-4)[Fuc(a1-3)]GlcNAc
# Outline: as §1
# [22] = biological target: Gal3S(b1-4)[Fuc(a1-3)]GlcNAc6S
# Outline: as §1
# Gal3S4S(b1-4)GlcNAc = biological target: Gal3S4S(b1-4)GlcNAc
# Outline: as §1
# Gal3S6S(b1-4)GlcNAc = biological target: Gal3S6S(b1-4)GlcNAc
# Outline: as §1
# Gal3S6S(b1-4)GlcNAc6S = biological target: Gal3S6S(b1-4)GlcNAc6S
# Outline: as §1
# Gal4S(b1-4)GlcNAc = biological target: Gal4S(b1-4)GlcNAc
# Outline: as §1
# Gal4S6S(b1-4)GlcNAc = biological target: Gal4S6S(b1-4)GlcNAc
# Outline: as §1
# Gal6P(b1-4)GlcNAc = biological target: Gal6P(b1-4)GlcNAc
# Outline: as §1
# Gal6S(b1-3)GlcNAc = biological target: Gal6S(b1-3)GlcNAc
# Outline: as §1
binder,measurement,setting,value
B1,glycan array binding signal (z-score),[1],-0.164
same,glycan array binding signal (z-score),[2],3.85
same,glycan array binding signal (z-score),[3],2.98
same,glycan array binding signal (z-score),[4],-0.192
same,glycan array binding signal (z-score),[5],0.106
same,glycan array binding signal (z-score),[6],0.058
same,glycan array binding signal (z-score),[7],0.068
same,glycan array binding signal (z-score),[8],-0.221
same,glycan array binding signal (z-score),[9],-0.177
same,glycan array binding signal (z-score),[10],-0.119
same,glycan array binding signal (z-score),[11],-0.192
same,glycan array binding signal (z-score),[12],-0.245
same,glycan array binding signal (z-score),[13],-0.248
same,glycan array binding signal (z-score),[14],-0.215
same,glycan array binding signal (z-score),[15],-0.239
same,glycan array binding signal (z-score),[16],-0.207
same,glycan array binding signal (z-score),[17],-0.197
same,glycan array binding signal (z-score),[18],-0.186
same,glycan array binding signal (z-score),Gal(b1-4)GlcNAc6P,-0.181
same,glycan array binding signal (z-score),Gal(b1-6)Gal,-0.19
same,glycan array binding signal (z-score),Gal3S(b1-3)GalNAc,-0.218
same,glycan array binding signal (z-score),Gal3S(b1-3)GlcNAc,-0.2
same,glycan array binding signal (z-score),[19],-0.202
same,glycan array binding signal (z-score),Gal3S(b1-4)Glc,-0.176
same,glycan array binding signal (z-score),Gal3S(b1-4)Glc6S,-0.189
same,glycan array binding signal (z-score),Gal3S(b1-4)GlcNAc,-0.227
same,glycan array binding signal (z-score),Gal3S(b1-4)GlcNAc6S,-0.227
same,glycan array binding signal (z-score),[20],-0.17
same,glycan array binding signal (z-score),[21],-0.225
same,glycan array binding signal (z-score),[22],-0.221
same,glycan array binding signal (z-score),Gal3S4S(b1-4)GlcNAc,-0.226
same,glycan array binding signal (z-score),Gal3S6S(b1-4)GlcNAc,-0.211
same,glycan array binding signal (z-score),Gal3S6S(b1-4)GlcNAc6S,-0.226
same,glycan array binding signal (z-score),Gal4S(b1-4)GlcNAc,-0.215
same,glycan array binding signal (z-score),Gal4S6S(b1-4)GlcNAc,-0.191
same,glycan array binding signal (z-score),Gal6P(b1-4)GlcNAc,-0.268
same,glycan array binding signal (z-score),Gal6S(b1-3)GlcNAc,-0.226
